{
  "source": "paper PMC3268518",
  "about": "(Molecular Cell, 2011)",
  "binders": {"B1": {"name": "rded[…]A (enzyme)", "chain": "not shown"}},
  "biological_target": "T1, co-purified GST-eIF4G1/eIF4E complex (yeast, UniProt P39935 1-952; P07260 1-213)",
  "T1 sequence (looked up) 1": "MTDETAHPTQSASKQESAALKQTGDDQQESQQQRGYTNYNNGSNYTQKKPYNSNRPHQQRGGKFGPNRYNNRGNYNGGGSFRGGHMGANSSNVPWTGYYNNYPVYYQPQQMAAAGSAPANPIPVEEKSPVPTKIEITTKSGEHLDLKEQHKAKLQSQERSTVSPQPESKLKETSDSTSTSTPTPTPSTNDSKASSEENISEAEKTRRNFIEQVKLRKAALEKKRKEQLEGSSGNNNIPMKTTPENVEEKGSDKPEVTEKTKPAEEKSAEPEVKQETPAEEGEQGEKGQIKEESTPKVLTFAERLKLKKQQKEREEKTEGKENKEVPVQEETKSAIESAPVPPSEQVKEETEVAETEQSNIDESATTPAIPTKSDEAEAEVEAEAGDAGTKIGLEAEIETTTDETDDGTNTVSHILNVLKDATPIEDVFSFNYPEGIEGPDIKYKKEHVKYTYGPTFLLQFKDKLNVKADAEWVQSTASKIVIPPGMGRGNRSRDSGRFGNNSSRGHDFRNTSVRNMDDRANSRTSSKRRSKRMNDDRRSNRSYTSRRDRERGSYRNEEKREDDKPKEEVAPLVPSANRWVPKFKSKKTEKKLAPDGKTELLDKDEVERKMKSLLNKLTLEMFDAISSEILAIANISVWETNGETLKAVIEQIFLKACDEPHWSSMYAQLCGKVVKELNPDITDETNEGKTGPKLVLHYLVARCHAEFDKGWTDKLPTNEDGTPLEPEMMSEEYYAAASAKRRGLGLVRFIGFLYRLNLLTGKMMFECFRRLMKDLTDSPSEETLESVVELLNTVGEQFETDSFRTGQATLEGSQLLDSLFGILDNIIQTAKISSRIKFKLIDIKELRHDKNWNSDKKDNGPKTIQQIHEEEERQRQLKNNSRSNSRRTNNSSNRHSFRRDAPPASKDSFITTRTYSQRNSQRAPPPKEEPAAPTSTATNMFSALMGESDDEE",
  "T1 sequence (looked up) 2": "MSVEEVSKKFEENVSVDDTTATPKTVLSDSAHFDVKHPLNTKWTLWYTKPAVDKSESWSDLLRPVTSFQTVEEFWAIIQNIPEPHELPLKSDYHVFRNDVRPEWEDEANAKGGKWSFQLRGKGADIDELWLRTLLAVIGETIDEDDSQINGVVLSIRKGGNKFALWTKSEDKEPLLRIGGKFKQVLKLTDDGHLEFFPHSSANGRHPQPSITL",
  "assay": "pull-down",
  "data": [
    {"binder": "B1", "values": [
      {"measurement": "binding result", "result": "binds"}
    ]}
  ]
}
